Data from PubChem BioAssay (NCI).
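A five-concentration, 48-hour dose response in 96-well plates underlies each endpoint, interpolated linearly between surrounding concentrations. Abbreviation: GI50, concentration required for 50% inhibition of growth. TGI is the concentration that stops growth completely.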

System: NCI-H322M lung
Assay: inhibition of tumour cell growth, NCI panel, 48 h

Fc1ccc2nc3n(c2c1)C(c1c(F)cccc1F)SC3 (stereo not drawn)
TGI: > 100 µM

CN(C)c1ccc(N=Nc2ccc3nc[nH]c3c2)cc1
TGI: > 100 µM

COc1ccc(N=c2ssc3c(=S)ssc23)cc1
TGI: > 100 µM

CCN=C1C=CC(=C(c2ccc(N)cc2)c2ccc(N(CC)CC)c(C)c2)C=C1
GI50: 0.433 µM
TGI: 4.57 µM

CC(=O)NC1=C(OS(=O)(=O)c2ccc(C)cc2)CN(C)C1=O
TGI: 32.1 µM

NC(=O)CCCC(NCc1c2ccccc2nc2ccccc12)C(=O)O (stereo not drawn)
TGI: > 100 µM

CC1=C(N2CC2)C(=O)c2nc3n(c2C1=O)CCC3OC(=O)CCl (stereo not drawn)
TGI: 0.454 µM

CN(CCO)c1nc2c(c(=O)[nH]1)CCC2
TGI: > 100 µM

CS(=O)(=O)Oc1cccc(/C=N/N=C(\N)NO)c1
TGI: > 100 µM

Cc1cc(N(CCC#N)CCC#N)ccc1/C=C/C(=O)Nc1cccc(Cl)c1
TGI: > 100 µM

CN1CCCCC1CCN1CCCCC1 (stereo not drawn)
TGI: > 100 µM

CC(C)CC(CC1=CCC2CC1C2(C)C)C1=C(O)C(C)(C)C(=O)C(C)(C)C1=O (stereo not drawn)
GI50: 0.317 µM
TGI: > 100 µM

CCOC(=O)c1sc2c(c1OC(=O)c1cccs1)c(=O)n(-c1ccccc1)c(=S)n2-c1ccccc1
TGI: 88 µM

O=C(C1CCCCC1)[C@@H]1[C@]2(C(=O)NC3CCCCC32)[C@@H]2CCCN2[C@@]12C(=O)NC1CCC(Cl)CC12 (stereo partly drawn)
GI50: 130 µM
TGI: 258 µM

C[C@]12CC[C@H]3[C@@H](CCC4=CC(=O)CC[C@@H]43)[C@@H]1CC[C@@H]2OC(=O)CCc1ccccc1
GI50: 19.3 µM
TGI: 46.1 µM

COc1cc2c(c(OC)c1OC)-c1ncc3cc(OC)c(OC)c(OC)c3c1C2
GI50: 18.4 µM
TGI: 63.8 µM

O=NC1C(Cl)C2CC1C1C(Br)C(Br)CC21 (stereo not drawn)
TGI: > 100 µM

COc1ccc(-c2c(N)n(-c3nc4ccccc4s3)c(=O)c3cc([N+](=O)[O-])ccc23)cc1
TGI: > 100 µM

COc1nc2c(c(=O)n1C)N(C(C)=O)C1C(N2)OCC(OC(C)=O)C1OC(C)=O (stereo not drawn)
TGI: > 10 µM

COC(=O)C1CCC(=O)N1CN(C(C)=O)c1ccccc1 (stereo not drawn)
TGI: > 100 µM

Cc1sc(Cc2ccccc2)nc1-c1ccc(N)cc1
TGI: > 100 µM

COC(=O)c1c2n(c3ccccc13)C[C@H]1OC(C)(C)O[C@@H]21
TGI: > 100 µM

O=C(O)C/C=C/CC(=O)O
TGI: > 100 µM
